Source: PubChem BioAssay AID686971 (National Center for Advancing Translational Sciences (NCATS), 2013)
Out of some 360,000 compounds screened, about 7,500 (2.1%) were called active. Inconclusive results, whose numbers are uncertain, are shown with a selection of clear calls. Calls come from the whole dose curve; as a rule, active = well fitted cell-killing curve with a large enough effect; inconclusive = small, poorly fitted or top-dose-only effect, or effect the other way, or another doubt; inactive = no such curve, though single readings can be large or run the other way. No potency is given beside an inconclusive call; the fits are too rough.

Assay: qHTS for induction of synthetic lethality in tumor cells producing 2HG: qHTS for the HT-1080-IDH1KD cell line;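 for activity, negative = toxicity: 0% = DMSO wells and -100% = cell-free medium wells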
Conditions: HT-1080 IDH1 knockdown viability, ATP luminescence, 48 h; activity, negative = toxicity: at 46.1 µM (top of the series) unless noted
How it was run: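 Assay cells: HT-1080 with IDH1 knockdown, 750 per well, RPMI/5% FBS. Exposure: 48 h at 37 °C following 2 h pre-incubation. Read: CellTiter-Glo luminescence; fitted concentration-response, curve class assigned.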
Potency is the fitted concentration of half-maximal effect; tags give direction and shape of the fitted curve.

SMILES	Potency	activity, negative = toxicity
Cc1ccc(C(C(=O)NC(C)(C)C)N(Cc2cccs2)C(=O)c2ccc3c(c2)OCCO3)cc1 (configuration not stated)	inconclusive [cytotoxic, single point]	
COc1cc(/C=N/OCC(=O)NC23CC4CC(CC(C4)C2)C3)ccc1OCc1ccccc1	inconclusive [cytotoxic, partial curve, poor fit]	
Cc1ccnc(NC(c2cccnc2)c2ccc3cccnc3c2O)c1 (configuration not stated)	inconclusive [cytotoxic, single point]	
Cc1ccc(NC(=O)C2CCCN(c3ncnc4c3nc3n4CCCCC3)C2)cc1Cl (configuration not stated)	inconclusive [cytotoxic, single point]	
C[C@@]12C(=O)Nc3ccc(F)cc3C(=O)N1[C@H]1c3cc(Br)ccc3OC[C@@H]1[C@@H]2c1ccccc1	inconclusive [cytotoxic, partial curve]	
CC(C)N1CCN(S(=O)(=O)c2ccccc2)CC1	inconclusive [rising, partial curve, poor fit]	
CCN(CC)S(=O)(=O)c1cccc(-c2nc3n(n2)Cc2ccccc2-3)c1	inactive	
N#CCCn1cc(/C=N/O)c(-c2ccccc2)n1	inactive	
Cc1ccc(NC(=O)COC(=O)C2(c3ccc(Cl)cc3)CCCC2)cc1	inconclusive [cytotoxic, single point]	
Cc1cccc(NC(=S)NNc2cccc(Cl)c2)c1	inconclusive [cytotoxic, partial curve]	
CC(C)(CO)NCc1cc(Br)ccc1OCc1ccccc1	inconclusive [cytotoxic, single point]	
O=C(Nc1ccc(N2CCN(C(=O)c3ccccc3)CC2)cc1)c1ccc(Br)o1	inactive	
CC(C)C(NC(=O)COc1ccccc1)C(=O)O (configuration not stated)	inactive	
CCCCC(CC)CN=C(N)NC(N)=NCCCCCCN=C(N)NC(N)=NCC(CC)CCCC (configuration not stated)	active: 23.1 µM	
FC(F)(F)c1ccc(-c2noc(CN3CCCN(C4CCCCC4)CC3)n2)cc1	inactive	
Cc1ccccc1C(=O)NNC(=O)C(=O)Nc1cccc(Cl)c1C	inconclusive [cytotoxic, single point]	
COc1cc(CNCCc2c[nH]c3ccccc23)cc(Cl)c1OCC(N)=O	inactive	
CC1(C)CN(c2ccccc2)N(Cc2ccc(F)cc2)C1=O	inactive	
CN(C)CCn1c(=O)n(Cc2ccccc2)c(=O)c2c3c(sc21)CCCCC3	inconclusive [cytotoxic, single point]	
CCOc1cnn(-c2ccccc2)c(=O)c1Cl	active: 16.4 µM	
NCc1csc(NC(=O)Nc2cccc(C(F)(F)F)c2)n1	inconclusive [cytotoxic, single point]	
Cc1ccc(NC(=O)c2cc(S(=O)(=O)N3CCOCC3)cn2C)cc1F	inactive	
CCOCCCN(C)C1CCN(C(=O)c2oc3ccccc3c2NC(=O)COc2cccc(C)c2)CC1	inconclusive [cytotoxic, single point]	
Cc1ccc2nc(C3CCCCC3)c(Cc3ccccc3C(F)(F)F)n2c1	inconclusive [cytotoxic, single point]	

SMILES	Potency	activity, negative = toxicity
Cc1cccc(OCCN2C(=O)C(=O)c3cc(C)ccc32)c1	inconclusive [cytotoxic, partial curve, poor fit]	
CC(C)Oc1ccc(CN2CCC2(C)C(=O)NCc2cccc3ccccc23)cc1 (configuration not stated)	inconclusive [cytotoxic, single point]	
N#Cc1ccc(C23CC4(C2)[C@H](CN(CC2CCCCC2)[C@@H]4c2ccccc2)C3c2ccccc2)cc1 (some centres not stated)	inactive	
C/C(CC(=O)Nc1cccc(Cl)c1)=N\NC(=O)Cc1ccc(Cl)cc1		inconclusive: -32.5% [cytotoxic]
[O-][N+]1=C2CCC/C(=N\O)C2=NC12CCCCC2		inconclusive: -2.57% [cytotoxic]
Cc1cccc(C)c1NC(=O)C(c1ccccc1)N(C)CCc1ccccc1 (configuration not stated)	inconclusive [cytotoxic, single point]	
CC(C)C[C@H](N)c1nnc(SCc2ccc(Cl)cc2)o1	inconclusive [cytotoxic, single point]	
O=C(Nc1ccc(S(=O)(=O)N2CCOCC2)cc1)c1c(F)cccc1F	inactive	
Cc1ccc(NC(=S)N/N=C2\CCCCC2C)cc1 (configuration not stated)	inconclusive [cytotoxic, single point]	
CC(C)c1ccc(OCc2cccc(C(=O)N/N=C/c3cccnc3)c2)cc1	inconclusive [cytotoxic, single point]	
COc1ccccc1/C=C\C(=O)NCC(=O)N/N=C/c1ccc(O)cc1O	active: 9.2 µM	
O=C(NC12CC3CC(CC(C3)C1)C2)N1CCN(c2nc(-c3ccccc3)cs2)CC1	inactive	
CN1OC[C@@H]2CN(C(=S)NCCc3ccccc3)[C@H](c3ccccc3Br)C[C@@H]21	inconclusive [cytotoxic, partial curve, poor fit]	
Cc1ccc2nc(N(CCCN(C)C)C(=O)c3cc(-c4cccs4)nc4ccccc34)sc2c1	inconclusive [cytotoxic, single point]	
COC(=O)c1ccc(-n2c(C)cc(C(=O)CCl)c2C)cc1	inconclusive [cytotoxic, single point]	
Cc1cccc(C(=O)NC2CCN(C(=O)Nc3ccccc3C)CC2)c1	inconclusive [cytotoxic, single point]	
COCCN(C(=O)Cc1csc(-c2cccc(Cl)c2)n1)c1c(N)n(Cc2ccccc2)c(=O)[nH]c1=O	inactive	
O=S(=O)(NC1CCCCCC1)c1ccc(Br)s1	inconclusive [cytotoxic, single point]	
C=CCc1cc(OC)ccc1OCCOCCN1CCc2ccccc2C1	inconclusive [cytotoxic, single point]	
O=C(CNC(=O)c1ccc(Br)o1)NCC1CCCCC1	inactive	
COc1ccc(CN2C(=O)C(CC(C)C)Nc3ncnc(N4CCN(c5ccccn5)CC4)c32)cc1 (configuration not stated)	inconclusive [cytotoxic, single point]	
O=C(NCCCN1CCOCC1)c1cc(-c2cccc(Br)c2)nc2ccccc12	inconclusive [cytotoxic, single point]	
O=C(Nc1ccc(Cl)c(Cl)c1)Nn1cnnc1	inactive	
COc1cccc(/C=N/NC(=O)C(=O)NCc2cccnc2)c1O	inconclusive [cytotoxic, partial curve]	

SMILES	Potency	activity, negative = toxicity
COc1ccc(S(=O)(=O)NNC(=O)Nc2ccccc2OC)c(OC)c1	inactive	
COc1cccc(-c2ccc(SCC(=O)c3ccccc3)nn2)c1	inconclusive [cytotoxic, single point]	
O=C(c1ccccn1)N1CC=C(c2ccccc2)CC1	inactive	
COc1cc(C(=O)N2CCCc3ccccc32)cc(OC)c1OC	inconclusive [cytotoxic, single point]	
Cc1ccc(-n2c(=O)[nH]c3cc(C(=O)NC4CCN(Cc5ccccc5)CC4)ccc3c2=O)cc1	inactive	
O=C(COc1ccc(C(=O)c2ccccc2)cc1)NCc1ccc(F)cc1	active: 2.31 µM	
CCn1c(CNC(=O)Cc2ccc(OC)cc2)nnc1SCCOc1ccccc1	inactive	
CCOC(=O)c1cc(C(=O)Nc2cccc(C)c2)nn1C	inconclusive [cytotoxic, single point]	
Cc1cccc(/C=C/c2onc(C)c2S(=O)(=O)N2CCC(C(=O)NC(C)(C)C)CC2)c1	inactive	
COc1ccc(CCNc2oc(-c3ccccc3OC)nc2C#N)cc1	inconclusive [cytotoxic, partial curve, poor fit]	
Cc1ccc(Cl)cc1N1CCN(C(=O)c2ccc(CS(=O)Cc3ccc(Cl)cc3)o2)CC1 (configuration not stated)	inconclusive [cytotoxic, single point]	
NC(=S)N=Nc1ccc(NN=C(N)N)cc1	inconclusive [cytotoxic, partial curve]	
CC(C)(C)NC(=O)[C@]1(C)CCC[C@@]2(C)C3CC[C@@]4(C)C[C@]3(CCC21)CC4=O (some centres not stated)	inactive	
COc1ccc(Cc2c(C(C)(C)C)nc3ccc(C)cn23)c(C)c1		inconclusive: -35.7% [cytotoxic]
CCCc1nc(SCC(=O)Nc2nc3c(s2)CCCC3)c2ccccc2n1	inactive	
Cc1cc(C)n(Cc2ccc(C(=O)N/N=C/c3ccc(-c4ccc([N+](=O)[O-])cc4)o3)o2)n1	inconclusive [cytotoxic, full curve]	
COc1ccc(-c2cn[nH]c2-c2ccc(OC)cc2O)cc1	inconclusive [cytotoxic, partial curve]	
Oc1ccccc1Nc1nc(-c2ccccc2O)nc2ccccc12	inactive	
COc1ccccc1-c1cc(C(=O)NC(C)c2ccccc2)no1 (configuration not stated)		inconclusive: 13.2%
COc1ccc(CN(C)S(=O)(=O)c2nnc(NC(=O)c3cccc(F)c3)s2)cc1	inconclusive [cytotoxic, single point]	
Nc1nc(Nc2ccccc2)nc(N2CCOCC2)c1[N+](=O)[O-]	inactive	
O=c1c(-c2ccco2)[n+]([O-])c2ccccc2n1OCc1ccccc1[N+](=O)[O-]		inconclusive: -2.12%
N#Cc1ccc(OCC(O)CN2CCN(c3ncc(C(F)(F)F)cc3Cl)CC2)cc1 (configuration not stated)	inconclusive [cytotoxic, partial curve]	
CCOc1nc2ccccc2cc1/C=C/C(=O)O	inactive	
